The supplement of paper PMC3334620
The full ranking holds about 33,000 sequences; the median of “E-score (-0.5 to 0.5)” is about -0.032, and the highest 2% start at about 0.36. Some of the results follow.

biological target: T1, Sko1 (UniProt Q02100); assay: PBM E-score (8-mer binding enrichment) (E-score (-0.5 to 0.5)); higher = stronger / more preferred TF binding; most listed sequences are background and not binding sites; conditions: protein concentration: 200 nM; construct: GST-full length
T1 sequence: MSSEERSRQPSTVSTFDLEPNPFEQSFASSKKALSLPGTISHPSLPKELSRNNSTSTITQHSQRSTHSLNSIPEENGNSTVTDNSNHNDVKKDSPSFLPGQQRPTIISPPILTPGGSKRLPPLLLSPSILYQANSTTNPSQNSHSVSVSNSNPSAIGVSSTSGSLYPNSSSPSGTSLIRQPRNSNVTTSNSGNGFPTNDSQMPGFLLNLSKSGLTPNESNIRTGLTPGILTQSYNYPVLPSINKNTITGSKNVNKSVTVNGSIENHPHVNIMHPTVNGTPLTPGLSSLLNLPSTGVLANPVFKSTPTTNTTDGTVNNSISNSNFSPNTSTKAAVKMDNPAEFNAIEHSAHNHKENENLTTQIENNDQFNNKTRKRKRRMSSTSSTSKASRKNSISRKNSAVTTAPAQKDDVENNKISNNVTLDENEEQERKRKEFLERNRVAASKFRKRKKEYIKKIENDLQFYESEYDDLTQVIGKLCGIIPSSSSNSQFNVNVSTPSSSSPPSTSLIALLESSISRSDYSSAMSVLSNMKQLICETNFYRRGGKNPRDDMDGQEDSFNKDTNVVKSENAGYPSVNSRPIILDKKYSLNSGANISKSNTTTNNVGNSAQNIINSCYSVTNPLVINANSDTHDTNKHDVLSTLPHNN
Procedure, shortened: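 Universal all-10-mer Agilent arrays, double-stranded by primer extension on fresh or once-stripped slides, were probed with about 100-200 nM GST-tagged yeast transcription factors made by PURExpress. Fluorescent anti-GST detected bound protein, and masliner normalised the scans. E-scores from the Universal PBM Analysis Suite were given to each ungapped eight-base word pooled with its reverse complement.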

| Sequence | PBM E-score |
| --- | --- |
| AGTATCGC | -0.0842 |
| GTATCGAA | 0.192 |
| CTTTTCGA | 0.103 |
| TATTCGCA | 0.221 |
| CGAACAAA | 0.0899 |
| CCCACCGC | -0.0379 |
| GACCTCAA | 0.0183 |
| CAGCGAAG | -0.283 |
| ATCTCCTG | -0.157 |
| GCGGCGCC | -0.109 |
| CAACCGAG | -0.162 |
| ATTGTTCG | 0.217 |
| GCACGCCA | 0.0396 |
| GCTCGAAA | -0.125 |
| TCTCTAAA | -0.107 |
| GCAGGGTA | -0.0477 |
| TGGACACA | -0.0691 |
| ATGAGGTG | 0.205 |
| AATCCCTG | -0.307 |
| TTTATAAA | 0.214 |
| ACTGGAAC | -0.0269 |
| ACGATAAC | 0.167 |
| ACTACACT | -0.115 |
| ATCGCTCG | -0.146 |
| AAGCCAGT | -0.146 |

| Sequence | PBM E-score |
| --- | --- |
| AGTCGATG | -0.0411 |
| AAGACGAG | -0.189 |
| CGATGATC | 0.0811 |
| ATGTCACG | 0.325 |
| AGGGAGGC | -0.0958 |
| ACTCGCGG | -0.132 |
| GAGGCAAA | -0.0527 |
| AGCGTTGA | -0.1 |
| GACGGTGC | -0.0817 |
| GTGGCCAC | 0.127 |
| CGGTTAAA | -0.162 |
| ACTGCATC | 0.127 |
| GAGGTTGA | -0.0232 |
| CCTAGCGA | -0.195 |
| ATTATAAA | 0.116 |
| AAGCCCCG | -0.177 |
| GACTCAGA | -0.205 |
| AATTTGAC | 0.214 |
| CAGACCAC | -0.0177 |
| TACCGAGA | -0.0792 |
| TTGAGCAA | -0.0443 |
| GCAGAGAC | -0.162 |
| GAGTACGC | 0.0719 |
| CTACCTAC | 0.121 |
| CACAGGTA | 0.113 |

| Sequence | PBM E-score |
| --- | --- |
| AACTACTT | -0.00602 |
| CAAGCGGG | -0.306 |
| GGGGTCAC | -0.24 |
| AGAGGAGA | -0.235 |
| CAACGAAC | 0.0301 |
| AGAAATTA | 0.271 |
| CTGCCGGC | -0.354 |
| GTGGAACA | 0.0269 |
| GAAACAGA | 0.193 |
| TACCCACA | -0.111 |
| TCTCCCCA | -0.261 |
| CAATAACC | 0.0385 |
| ATGCCGGA | -0.172 |
| GGCCGGTA | -0.0704 |
| TAAGGGTA | -0.14 |
| ACCCTTCA | -0.148 |
| CCTTATAG | 0.0597 |
| ACTAAGCC | -0.157 |
| CCATATCG | -0.0184 |
| TAGATTGA | 0.0379 |
| ATGCAATC | 0.121 |
| ATTCCAAT | 0.216 |
| AAGGCGCG | -0.11 |
| CTTCTTTA | 0.0871 |
| CACACGAA | 0.229 |

| Sequence | PBM E-score |
| --- | --- |
| AAACCCGC | -0.11 |
| ATGGACTA | -0.0254 |
| CGTATGAA | 0.361 |
| ACCAGAAG | 0.00034 |
| ACAGACTA | -0.0343 |
| TGGTTACA | 0.123 |
| ATACCTTC | -0.139 |
| CAGGCCGC | -0.0941 |
| GTAAATTA | 0.233 |
| ACCTTCAG | 0.00033 |
| CCGGCTCA | -0.162 |
| ATGCCGAG | -0.138 |
| ACTGAGAC | -0.0815 |
| ATGGCTTC | -0.178 |
| ATTACGCC | 0.338 |
| ACGCCGAC | -0.0142 |
| AAATATCC | 0.0326 |
| CGGGTGGA | -0.198 |
| TCGGTTAA | -0.0102 |
| CTGCGAGC | -0.141 |
| AACCGAAT | 0.153 |
| ATCTGTCA | 0.0708 |
| CTCGATTC | -0.0562 |
| GCAAGTAA | -0.101 |
| GTGTGGCA | -0.0855 |

| Sequence | PBM E-score |
| --- | --- |
| ATCTTCAG | 0.0509 |
| ATTTCCGG | -0.00931 |
| AAATTGGT | 0.00944 |
| CTGCCGGA | -0.146 |
| GCAGGCTA | -0.251 |
| ACGTGGGC | 0.347 |
| CACCTTGG | -0.025 |
| AGTCAAAA | 0.139 |
| CTTCAGGA | -0.00644 |
| CCAGCATA | -0.123 |
| ACACTTCA | -0.0431 |
| CCTGATAG | -0.213 |
| ATCGGTCC | -0.289 |
| AGAGCTCG | -0.209 |
| AGGCTTGC | -0.107 |
| GTCTCGGA | -0.0981 |
| TATGCACA | 0.0251 |
| GATATTCC | 0.0474 |
| GGCGCGTA | 0.0232 |
| CCCCCCTA | -0.315 |
| CGCATATA | 0.125 |
| TCCTAGGA | -0.406 |
| TGGGATAA | -0.146 |
| ACTTTACC | 0.155 |
| ATGATTCC | 0.169 |

| Sequence | PBM E-score |
| --- | --- |
| GAGTCGAA | -0.166 |
| AGATCAGG | -0.144 |
| GTTCTATA | -0.0699 |
| CTTGACCC | -0.12 |
| CTTCATGC | -0.163 |
| AGCGTCAC | 0.252 |
| AATGACAT | 0.4 |
| ACCTCAAG | -0.194 |
| CATTGAAC | 0.133 |
| TAAAGTAA | 0.205 |
| AAGAGCAA | -0.189 |
| ACATCGGT | -0.183 |
| CGCTAAAA | -0.102 |
| GTGCGCAC | 0.196 |
| CCCATAGA | -0.28 |
| ACCGCCAG | -0.0518 |
| AAGTGACG | 0.445 |
| GAAAGTAA | 0.0843 |
| TCGTGACA | 0.129 |
| CCCCCGGG | -0.265 |
| AGCACGGG | -0.248 |
| CATACCTA | -0.0293 |
| CAATAGAG | -0.0365 |
| ACGTGCCG | 0.243 |
| AGAAGGTC | -0.0991 |

| Sequence | PBM E-score |
| --- | --- |
| GGAGCAGA | -0.103 |
| ACCGAAGG | -0.107 |
| CGCGTAGA | 0.0669 |
| AGAAGTAT | 0.163 |
| GAGGTGGA | -0.268 |
| GCCGAGGA | -0.13 |
| TACTAAGA | 0.00683 |
| CGACAGAG | -0.124 |
| AAGACTGG | -0.0695 |
| CGAGTCCG | -0.112 |
| TGGAGCCA | -0.265 |
| CCTCGTCG | -0.233 |
| CAGGGGTC | -0.209 |
| AGATAGGC | -0.0324 |
| AACTCGGC | 0.121 |
| GGGTCCAC | -0.416 |
| ACTGCAGA | 0.0153 |
| CTGCGGAC | -0.184 |
| CTAGTTAA | 0.143 |
| ACCACAGC | -0.195 |
| CTGGAAAA | 0.0171 |
| CGCTAGTC | -0.288 |
